Test results: the RNAGym collection of RNA variant scans (doi:10.1073/pnas.2313332121)
Variants at the floor of the assay are shown more often than the library holds them.

B1: TPR 5TU (parent)
chain: GGAUCUUCUCGAUCUAACAAAAAAGACAAAUCUGCCACAAAGCUUGAGAGCAUCUUCGGAUGCAGAGGCGGCAGCCUUCGGUGGCGCGAUAGCGCCAACGUUCUCAACUAUGACACGCAAAACGCGUGCUCCGUUGAAUGGAGUUUAUCAUG

Variants of: B1
Test: polymerase ribozyme fitness, log enrichment relative to wild type (log ratio); higher = more active; in vitro selection for triplet polymerase activity
In short: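 A heterodimeric triplet polymerase ribozyme had each of its subunits mutagenized by PCR into a library, which was transcribed. One round of in vitro selection, done in triplicate, annealed each library with a biotinylated primer, its partner subunit and triplets, then incubated it frozen at −7 °C before gel excision of extended constructs, streptavidin-bead capture and RT-PCR. Fitness is the logarithm of genotype enrichment relative to wild-type enrichment, based on Illumina sequencing of inputs and outputs and inverse-variance-weighted replicate averages. A base-2 logarithm is used, and genotypes were kept only with ≥10 input reads and ≥1 read per output.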

Variant	polymerase ribozyme fitness (log ratio)
GGAUCUUCUCGAUCUAACAAAAAAGACAAAUCUGCCACAAAGCUUGAGAGCAUCUUCAUAUCCAGAUGCGGCUGCCUUCGGUGGCGCGAUAGCGCAAACGUUCUCAACUAUGACACGCAAAACGCGUGCGCCGUUGAUUGGAGUUUAUCGUG	≤ -4.2
GGAUCUUCUCGAUCUAACAAAAAAGACAAAUCUGCCACAAAGCUUGAGAGCAUCUUCAGAUGCAGAGGCGCCAGCCUUCGGUGGCGCGAUAGCGCCAAUGUUCUCAACUAUGACACGGAAAAGGUGUGCUCCGUUGAUUGGAGAUUAUCAUG	≤ -4.2
GGAUCUUCUCGAUCUAACAAAAAAGACAAAUCUGCCACAAAGCUUGAGAGCAUCUUCAGAUGCAGAGGCGGCAGCCUUCGGUUGCGCGAUAGCGCCAACGUUCUCAACUAUGACACGCAAAACGCGUGCUCCGUUGAAUGGAGUUUAUCAUG	0.174
GGAUCUUCUCGAUCUAACAAAAAAGACAAAUCUGCCACAAAGCUUGAGAGCAUCUUCAGAUGCAGAGGCGGCAGCCUUCGGUGGCGCGAUAGCACCAACGUUCUCAACUAUGACACGCAAAACGCGUGCUCCGUUGAAUGGAGUUUAUCAUG	-0.945
GGAUCUUCUCGAUCUAACAAAAAAGACAAAUCUGCCACAAAGCUUGAGAGCAUCUUCAGAUGCAGAGGCGGCAGCCUUCGGUGGCGCGAUAGCCCCAACGUUCUCAACUAUGACACGCAAAACGCGUGCUCCGUUGAAUGGAGUUUAUCAUG	-0.674
GGAUCUUCUCGAUCUAACAAAAAAGACAAAUCUGCCACAAAGCUUGAGAGCAUCUUCAGAAGCAGAGGCGGCAGCCUUCGGUGGCGCGAUAGCGCCAACGUUCUCAGCUAUGACACGGGAAACGCGUGCUCCGUUGAAUGGAGUUUAUCAUG	≤ -4.2
GGAUCUUCUCGAUCUAACAAAAAAGACAAAUCUGCCACAAAGCUUGAGAGCAUCUUCAGAUGCAGAGGCGGCAGCCUUCGGCGGCGCGAUAGCGCCAACGUUCUCAACUAUGACACGCAAAACGCGUGCUCCGUUGAAUGGAGUUUCUGAUG	≤ -4.2
GGAUCUUCUCGAUCUAACAAAAAAGACAAAUCUGCCACAAAGCUUGAGAGCAUCUUCAGAUGCAGAGGCGGCAGCCUUCGGUGGCGCGAUAGCGCCAACGUUCUCAACUAUGACACGCAAAACGCGUGCUCCGUUGAAUGGAGUUGAUCAUG	0.231
GGAUCUUCUCGAUCUAACAAAAAAGACAAAUCUGCCACAAAGCUUGAGAGCAUCUUCCGCUGCAGAGGCGGCAGCCUUCGGUGGCGCGAUUGCGCCAACGUUCUCAACUAUGACCCGCAAAACGCGUGCUCCGUUGAAUGGAGUUUAGCAUG	≤ -4.2
GGAUCUUCUCGAUCUAACAAAAAAGACAAAUCUGCCACAAAGCUUGAGAGCAUCUUCCGGUGCGGAGGCGGCAGCCUUCGGUGGCGCGAUAGCGCCAACGUUCUCAACUAUGACACGCAAAACGCGUGCUCCGAUGAAUGGAGUUUAUCAUG	≤ -4.2
GGAUCUUCUCGAUCUAACAAAAAAGACAAAUCUGCCACAAAGCUUGAGAGCAUCUUCCGGUGCAGAGGCGGCAGUCUUCGGUGGCGCGAUAGCGCCAACGUUCUCAACUAUGACACGCAAAACGCGUGCUCCGUUGAAUGGAGUUUAUCAUG	0.32
GGAUCUUCUCGAUCUAACAAAAAAGACAAAUCUGCCACAAAGCUUGAGAGCAUCUUCCGAUGCGAAGGCGACAGCCUUCGGUGGCGCGAUAGCGUCAACGGUCUCAACUAUGACACGCAAAACGCGUGCUCCGUUGAAUGGAGUUUAUCAUG	≤ -4.2
GGAUCUUCUCGAUCUAACAAAAAAGACAAAUCUGCCACAAAGCUUGAGAGCAUCUUCCGAUGCAGCGGCGGCAGCCUUCGGUGGCGGGAUAGCGCCAACGUUCUCAACUAUGACACGCAAAACGCGUGCUCCGUGGAAUGGAGCUUAUCAUG	≤ -4.2
GGAUCUUCUCGAUCUAACAAAAAAGACAAAUCUGCCACAAAGCUUGAGAGCAUCUUCCGAUGCAGCGGCGGCAGCCUUCGGUGGCGCGAUAGAGCCAACGUUCUCAACUAUGACACGCAAAACGCGUGCUCCGUUGAAUGGAGUUUAUCAUG	≤ -4.2
GGAUCUUCUCGAUCUAACAAAAAAGACAAAUCUGCCACAAAGCUUGAGAGCAUCUUCCGAUGCAGGGGCGGCAGCCUUCGGUGGCGCGAUAGCGCCAACGUUCUCAACUAUGACACGCAAAACGCGUGCUCCGUUGAAUUGAGUUUAUCAUG	≤ -4.2
GGAUCUUCUCGAUCUAACAAAAAAGACAAAUCUGCCACAAAGCUUGAGAGCAUCUUCCGAUGCAGUGGCGGCAGCCUUCGGUGGCGCGAUAGUGCCAACGUUCUCAACUAUGACACGCAAAACGCGUGCUCCGUUGAAUGGAAUUUAUCAUG	≤ -4.2
GGAUCUUCUCGAUCUAACAAAAAAGACAAAUCUGCCACAAAGCUUGAGAGCAUCUUCCGAUGCAGAGGCGGCGGCCUUCGGUGGUGCGCUAGCGCCAACGUUCUCAACUAUGACACGCAAAACGCGGGCUCCGUUGAAUGGAGCUUAUCAUG	≤ -4.2
GGAUCUUCUCGAUCUAACAAAAAAGACAAAUCUGCCACAAAGCUUGAGAGCAUCUUCCGAUGCAGAGGCGGCAGCCUUCGGUGGCGCGGUAGCGCCAACGUUCUCAACUAUGACACGCAAAACGCGUGCUCCGUUGAAUGGAGUUUAUCAUG	-0.995
GGAUCUUCUCGAUCUAACAAAAAAGACAAAUCUGCCACAAAGCUUGAGAGCAUCUUCCGAUGCAGAGGCGGCAGCCUUCGGUGGCGCGAUAGCGCCAACGUUCUCAACUAUGACUCGCAAAACGCGCGCUCCGUUGAAUGGAGGUUAUCAUG	0.143

Variant	polymerase ribozyme fitness (log ratio)
GGAUCUUCUCGAUCUAACAAAAAAGACAAAUCUGCCACAAAGCUUGAGAGCAUCUUCCGAUGGAGAGGCGGCAGCCUUCGGUGGCGCGAUAGCGCGAACGUUCUCAACUAUGACACGCAAAACGCGUGCUCCGUUGAAUGGAGUUUAUCAUG	-0.61
GGAUCUUCUCGAUCUAACAAAAAAGACAAAUCUGCCACAAAGCUUGAGAGCAUCUUCCGAUGUAGAGGCGGCAGCCUUCGGUGGCGCGAUAGCGGCAACGUUCUCAACUAUGACACGCAAAACGCGUGCUCCGUUGAAUGGAGUUUAUCAUG	-2.14
GGAUCUUCUCGAUCUAACAAAAAAGACAAAUCUGCCACAAAGCUUGAGAGCAUCUUCCGAUGCAGAGGGGGCAGCCUUCGGUGGCGCGAUUGCGCCAACGUGCUCAACUAUGACACGCAAAACGCGUGCUCCGUUGAAUGGCGUUUAUCAUG	≤ -4.2
GGAUCUUCUCGAUCUAACAAAAAAGACAAAUCUGCCACAAAGCUUGAGAGCAUCUUCCGAUGCAGAGGCGGUAGCCUUCGGUGGCGCGAUAGCGCCAACGUUCUCAACUAUGACACGCAAAACGCGUGCUCCGUUGAAUGGAGUUUAUCUUG	0.398
GGAUCUUCUCGAUCUAACAAAAAAGACAAAUCUGCCACAAAGCUUGAGAGCAUCUUCCGAUGCAGAGGCGGUAGCCUUCGGUGGCGCGAUAGUGCCGACGUUCUCAACUAUGACACGCAGAACGCGUGCUCCGAUGGAUGGAGUUUAUCAUG	≤ -4.2
GGAUCUUCUCGAUCUAACAAAAAAGACAAAUCUGCCACAAAGCUUGAGAGCAUCUUCCGAUGCAGAGGCGGCAGGCUUCGGUGGCGCGAUAGCGCCGACGUUCUCAACUAUGACACGCAAAACGCGUGCUCCGUUGAAUGGAGUUUAUCAUG	≤ -4.2
GGAUCUUCUCGAUCUAACAAAAAAGACAAAUCUGCCACAAAGCUUGAGAGCAUCUUCCGAUGCAGAGGCGGCAGUCUUCGGUGGCACGAUAGCGCCAACGUUCUAAACUAUGACACGCAAAACGCGUGCUCCGUUGAAUGGAGUUUAUCAUG	≤ -4.2
GGAUCUUCUCGAUCUAACAAAAAAGACAAAUCUGCCACAAAGCUUGAGAGCAUCUUCCGAUGCAGAGGCGGCAGUCUUCGGUGGCGCCAUAGGGCCAACGUUCUAAACUAUGACACGCAAAACGCGUGCUCCGUUGAAUUUAGUUUAUCAUG	≤ -4.2
GGAUCUUCUCGAUCUAACAAAAAAGACAAAUCUGCCACAAAGCUUGAGAGCAUCUUCCGAUGCAGAGGCGGCAGCCUUCGGUGGAGCGAUAGCGCCAACGUUCUCAACUCGGACACGCAAAACGCGUGCUCCGUUGAAUGGAGUUUAUCAUG	≤ -4.2
GGAUCUUCUCGAUCUAACAAAAAAGACAAAUCUGCCACAAAGCUUGAGAGCAUCUUCCGAUGCAGAGGCGGCAGCCUUCGGUGGCGAGAUAGCGCCAACGUUCUCAACUAUGACACGCAAAACGCGUGCUCCGUUGAAUGGAGUUUAUCAUG	≤ -4.2
GGAUCUUCUCGAUCUAACAAAAAAGACAAAUCUGCCACAAAGCUUGAGAGCAUCUUCCGAUGCAGAGGCGGCAGCCUUCGGUGGCGAGAUAGCGCCAACGUUCUCGACUAUGACACGCAAAACGCGUGCUCCGUUGAAUGGAGUUUAUCAUG	≤ -4.2
GGAUCUUCUCGAUCUAACAAAAAAGACAAAUCUGCCACAAAGCUUGAGAGCAUCUUCCGAUGCAGAGGCGGCAGCCUUCGGUGGCGUGAUAGCGCCAACGUUCUCAACUAUGACACGCAAAACGCGUGCUCCGUUGAAUGGAGUUUAUCAUG	-1.59
GGAUCUUCUCGAUCUAACAAAAAAGACAAAUCUGCCACAAAGCUUGAGAGCAUCUUCCGAUGCAGAGGCGGCAGCCUUCGGUGGCGUGAUAGCGCCAACGUUCUCAACUAUGACGGGCAAUACGCGUGCUCCGUUUAAUGGAGUUUAUCAUG	-4.12
GGAUCUUCUCGAUCUAACAAAAAAGACAAAUCUGCCACAAAGCUUGAGAGCAUCUUCCGAUGCAGAGGCGGCAGCCUUCGGUGGCGCGAUAGUGCCAACGUUCUCAACUAUGACACGCAAAACGCGUGCUCCGUUGAAUGGAGUUUAUCAUG	-1.71
GGAUCUUCUCGAUCUAACAAAAAAGACAAAUCUGCCACAAAGCUUGAGAGCAUCUUCCGAUGCAGAGGCGGCAGCCUUCGGUGGCGCGAUAGCGCCAACGUUAUCAACUAUGACACGCAAAACGCGUGCUCCGUUGAAUGGAGUGUAUCAUG	-1.84
GGAUCUUCUCGAUCUAACAAAAAAGACAAAUCUGCCACAAAGCUUGAGAGCAUCUUCCGAUGCAGAGGCGGCAGCCUUCGGUGGCGCGAUAGCGCCAACGUUUUCAACUAUGACACGCAAAACGCGUGCUCCGUUGAACGGAGUUUAUCAUG	≤ -4.2
GGAUCUUCUCGAUCUAACAAAAAAGACAAAUCUGCCACAAAGCUUGAGAGCAUCUUCCGAUGCAGAGGCGGCAGCCUUCGGUGGCGCGAUAGCGCCAACGUUCUCAACUAUGACAUGCAAAACGCGUGCUCCGCUGAAUGAAGUUUAUCAGG	≤ -4.2
GGAUCUUCUCGAUCUAACAAAAAAGACAAAUCUGCCACAAAGCUUGAGAGCAUCUUCCCAUGCAGAGGCGGCGGCCUUCGGUGGCGCGAUAGCUCCAACGUUCUCAACUUUGACACGCAAAACGCGUGCUCCGUUGAAUGGAGUUUAUCAUG	≤ -4.2
GGAUCUUCUCGAUCUAACAAAAAAGACAAAUCUGCCACAAAGCUUGAGAGCAUCUUCCCAUGCAGAGGCGGCAGCCUUCGGUGGCGCGAUAGCGCUAACGUUCUCAACUAUGACACGCAAAACGCGUGCUACGUUGAAUGGAGUUUAUCAUG	-4.15
